Results taken from the supplement of paper PMC10126150.
Values marked as one replicate rest on one cluster of the flow cell; about a third of the high ones do not repeat.

Each sequence was assayed on ATP (assay: switch fluorescence ratio, 500 uM ATP over buffer (Cy3 cluster intensity, sum of 5 cycles each) (fold (ratio)); higher = stronger signal-on switching upon ATP binding; sequences stand for … in TCGTCGGCAGCGTCAGATGTGTATAAGAGACAGTTTTTTTTTTTTTTTTTTTTTTTTT…TC). Conditions: aptamer strand: ATP DNA aptamer (quencher-CACCTGGGGGAGTATTGCGGAGGAAGG + anchor), 100 nM annealed; ATP concentration: 500 uM; one replicate.
Summary of the method: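 After annealing to 100 nM quencher-labelled ATP aptamer, Cy3-labelled switching-strand clusters on a modified Illumina MiSeq flow-cell were imaged in selection buffer. A second image followed after 15 min with 500 uM ATP at 22 °C, and five such buffer/ATP cycles were done, each separated by NaOH stripping and re-annealing. The fluorescence ratio, averaged per switch-domain sequence, is summed target-cycle over summed buffer-cycle Cy3 intensity per cluster, with clusters outside 100-1000 RFU excluded.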
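Also: ATP exposure 15 min at 22 °C before imaging.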

Sequence | switch fluorescence ratio
CTTGGTTATC | 1.04
CTTGGTTGAT | 1.03
CTTGGTTGTC | 0.996
CTTGGTTTAA | 0.914
CTTGTAGTGG | 1.01
CTTGTCACCT | 1.11
CTTGTGACCT | 1.22
CTTGTGATTA | 0.978
CTTGTTACTG | 1
CTTTAAGATA | 0.981
CTTTAAGTAA | 1.03
CTTTACCGTA | 1.13
CTTTACGTTT | 1.02
CTTTACTCTT | 0.998
CTTTATCGCA | 0.965
CTTTCAATAG | 1.53
CTTTCACAG | 1.01
CTTTCAGCGG | 0.983
CTTTCCCATT | 1.03
CTTTCCGACT | 1.24
CTTTCGAGTG | 0.942
CTTTCGCTGA | 1.07
CTTTCGTAAT | 3.45
CTTTCTATCG | 1.06
CTTTGAACGC | 1.1

Sequence | switch fluorescence ratio
CTTTGATCTT | 0.999
CTTTGCGGCA | 1.02
CTTTGGGAGA | 1
CTTTGGGTTC | 0.998
CTTTGGTAAA | 1.01
CTTTGTGACA | 0.959
CTTTGTGTCT | 1.05
CTTTTAAAGA | 0.936
CTTTTAAGTG | 0.975
CTTTTACTGG | 1.01
CTTTTATACA | 1.11
CTTTTCCAA | 1.15
CTTTTCTGT | 1.01
CTTTTGAGTG | 0.949
CTTTTTGTTA | 1.01
CTTTTTTAGG | 1.32
GAAAAACATG | 1.01
GAAAAAGTTT | 1.04
GAAAAATTTA | 1.01
GAAAACATTC | 1.08
GAAAACGATA | 1.02
GAAAAGTATA | 1
GAAAAGTTG | 1.16
GAAAATGACT | 1.07
GAAAATTGCT | 1.01

Sequence | switch fluorescence ratio
GAAAATTTCG | 1.06
GAAACACTCT | 1
GAAACCTAAC | 1.36
GAAACGTGGA | 1.09
GAAACTATGA | 1.09
GAAACTGAGA | 0.986
GAAAGAGTAA | 0.995
GAAAGATTGT | 0.964
GAAAGCCGCG | 1.03
GAAAGCGAGG | 0.979
GAAAGGGGCA | 0.974
GAAAGGTTGC | 0.986
GAAAGTGTGC | 1.01
GAAAGTTCTT | 1.03
GAAATAAGAA | 0.982
GAAATAGTCT | 0.994
GAAATCAAG | 1.01
GAAATCCTTC | 1.39
GAAATCGGTT | 0.948
GAAATCTAGT | 0.968
GAAATGGGCA | 1.01
GAAATTAAGG | 0.995
GAAATTACTG | 0.997
GAAATTAGCT | 0.996
GAAATTATAC | 1.75

Sequence | switch fluorescence ratio
GAACAAGACA | 0.978
GAACACAAGG | 1.02
GAACAGTTGG | 0.984
GAACCATTCG | 1.05
GAACCGTAAG | 0.979
GAACCGTGAC | 1.53
GAACCTTCGC | 3.33
GAACGAGACC | 1.15
GAACGATTT | 1
GAACGGACCG | 0.993
GAACGGCTGG | 0.954
GAACGGGAC | 2.38
GAACTAAGGC | 1.12
GAACTATCTG | 0.985
GAACTCCGGA | 1.55
GAACTCGTGT | 1.04
GAACTGAACG | 1.1
GAACTTGAAA | 0.967
GAAGAAACGT | 1.13
GAAGAACTCT | 0.984
GAAGAGGCGC | 1.01
GAAGAGTGTA | 0.98
GAAGATACTA | 1.02
GAAGATGAGA | 0.922
GAAGATTATC | 1.1

Sequence | switch fluorescence ratio
GAAGCCCGCA | 1.13
GAAGCCTTCA | 1.53
GAAGCGACTG | 0.925
GAAGCTGGGC | 1.01
GAAGCTTTGT | 0.996
GAAGGAATTA | 1.03
GAAGGAGCCA | 0.933
GAAGGATGCG | 1.02
GAAGGGAGAT | 0.952
GAAGGGCAAT | 0.954
GAAGGGGGT | 0.983
GAAGGTAGAA | 1.04
GAAGGTCATG | 1.03
GAAGTATGC | 1.05
GAAGTCGCCT | 0.962
GAAGTCGCTA | 1.03
GAAGTCGTAC | 1.18
GAAGTGACAG | 0.997
GAAGTGGTCA | 0.985
GAAGTTAACG | 1.03
GAAGTTATGC | 1.19
GAAGTTCGTT | 1.01
GAAGTTGTAG | 1.02
GAAGTTTCAA | 1.04
GAAGTTTGCT | 0.927

Sequence | switch fluorescence ratio
GAAGTTTTAA | 0.97
GAAGTTTTT | 0.984
GAATAAACTC | 1
GAATAAGTAG | 1.01
GAATAGAGTC | 0.999
GAATATCGCA | 1.08
GAATATCGCT | 1.07
GAATATGCTC | 1.05
GAATATTAT | 1.07
GAATCCGCCT | 1.21
GAATCCGTGG | 1.05
GAATCGGC | 0.965
GAATCTTGGG | 0.96
GAATCTTGTT | 0.998
GAATGAAATT | 0.972
GAATGACGT | 1.01
GAATGAGGAA | 1.04
GAATGCAGCT | 1.09
GAATGCGCTT | 1.01
GAATGCTTAC | 1.82
GAATGGAGGA | 1.01
GAATGGATCT | 1.03
GAATGGGAAG | 0.993
GAATGGGTGC | 0.98
GAATGGTGCT | 1.03

Sequence | switch fluorescence ratio
GAATGGTGTA | 1.01
GAATGTGTCA | 1
GAATGTTGAC | 1.01
GAATTACGCA | 1.14
GAATTACTGC | 0.972
GAATTAGTCG | 0.989
GAATTCTAGC | 0.979
GAATTGCGTA | 0.996
GAATTGCTCC | 1.04
GAATTGTGGC | 0.965
GAATTTAGCT | 1.05
GAATTTGGCC | 1.01
GAATTTGTCG | 1.02
GACAAACCAG | 1.09
GACAAATACC | 1.18
GACAACATAC | 3.23
GACAACCGCA | 1.2
GACAAGCAGT | 1.24
GACAAGGGAT | 0.995
GACAAGGGGT | 1.08
GACAAGGTGT | 1.25
GACAAGTTAG | 1.01
GACACCGTTT | 0.931
GACACCTAAT | 1.41
GACACCTTAT | 1.07

Sequence | switch fluorescence ratio
GACACGTAGA | 1.13
GACACTCTAT | 1.06
GACACTGGT | 1.04
GACAGAGACT | 1.01
GACAGCATGC | 1.24
GACAGGGA | 0.982
GACAGTAAGA | 1.08
GACAGTAGAA | 1.03
GACAGTAGAG | 1.08
GACAGTCACA | 1.01
GACAGTTGAG | 1.01
GACAGTTTCA | 0.999
GACATAGTTC | 1.03
GACATATTGT | 1.04
GACATCATAG | 0.999
GACATGGTA | 1.03
GACATTAGCC | 1.05
GACATTAGGT | 1
GACATTGTGG | 1
GACATTTTCT | 0.954
GACCACGCCT | 1.18
GACCACTTAG | 1.05
GACCATCTCG | 1.03
GACCATGGAG | 0.963
GACCATGTT | 0.956
